Measurements reported in the supplement of paper PMC6089552.
The campaign covered roughly 3,200 compounds. About 300 (9.4%) showed activity. The list shows a part of the results, in another mix than the full data.

System: A673/TR/shEF
Experiment: cell viability (LOESS-normalised, relative to median of negative controls) (log2 ratio); higher = more viable cells (less compound effect), active = hit call of the paper (over 3 MAD below the median)
Conditions: treatment time: 72 h
Outline: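 Doxycycline, present or absent from 24 h before compounds, was used to induce EWS-FLI1 shRNA knockdown in A673/TR/shEF Ewing sarcoma cells at 1,500 per well in 384-well plates. Cells then received library compounds at two or more concentrations, or DMSO controls, for three days. Viability was measured by CellTiter-Glo luminescence on an Envision reader, and per-plate LOESS correction, division by the negative-control median and log2 transformation followed.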

[1] = 0.25 µM, library screen: screen1, EWS-FLI1 expression: high (no doxycycline)
[2] = 0.25 µM, library screen: screen1, EWS-FLI1 expression: low (doxycycline-induced shRNA knockdown)
[3] = 2.5 µM, library screen: screen1, EWS-FLI1 expression: high (no doxycycline)
[4] = 2.5 µM, library screen: screen1, EWS-FLI1 expression: low (doxycycline-induced shRNA knockdown)
[5] = 0.25 µM, library screen: screen2, EWS-FLI1 expression: high (no doxycycline)
[6] = 0.25 µM, library screen: screen2, EWS-FLI1 expression: low (doxycycline-induced shRNA knockdown)
[7] = 2.5 µM, library screen: screen2, EWS-FLI1 expression: high (no doxycycline)
[8] = 2.5 µM, library screen: screen2, EWS-FLI1 expression: low (doxycycline-induced shRNA knockdown)
[9] = 0.103 µM, library screen: screen3, EWS-FLI1 expression: high (no doxycycline)
[10] = 0.103 µM, library screen: screen3, EWS-FLI1 expression: low (doxycycline-induced shRNA knockdown)
[11] = 0.308 µM, library screen: screen3, EWS-FLI1 expression: high (no doxycycline)
[12] = 0.308 µM, library screen: screen3, EWS-FLI1 expression: low (doxycycline-induced shRNA knockdown)
[13] = 0.926 µM, library screen: screen3, EWS-FLI1 expression: high (no doxycycline)
[14] = 0.926 µM, library screen: screen3, EWS-FLI1 expression: low (doxycycline-induced shRNA knockdown)
[15] = 2.8 µM, library screen: screen3, EWS-FLI1 expression: high (no doxycycline)
[16] = 2.8 µM, library screen: screen3, EWS-FLI1 expression: low (doxycycline-induced shRNA knockdown)
[17] = 8.3 µM, library screen: screen3, EWS-FLI1 expression: high (no doxycycline)
[18] = 8.3 µM, library screen: screen3, EWS-FLI1 expression: low (doxycycline-induced shRNA knockdown)
[19] = 25 µM, library screen: screen3, EWS-FLI1 expression: high (no doxycycline)
[20] = 25 µM, library screen: screen3, EWS-FLI1 expression: low (doxycycline-induced shRNA knockdown)

SMILES: Cc1ccc(CN2CCN(Cc3c[nH]c4ccccc34)CC2)cc1
- cell viability (log2) [1]: inactive: 0.0521
- cell viability (log2) [2]: inactive: 0.0225
- cell viability (log2) [3]: inactive: 0.104
- cell viability (log2) [4]: inactive: 0.0231

SMILES: C=C1C(=O)O[C@H]2[C@H]1CC/C(C)=C/CC[C@@]1(C)O[C@@H]21
- cell viability (log2) (0.025 µM, library screen: screen2, EWS-FLI1 expression: high (no doxycycline)): inactive: 0.165
- cell viability (log2) (0.025 µM, library screen: screen2, EWS-FLI1 expression: low (doxycycline-induced shRNA knockdown)): inactive: 0.0364
- cell viability (log2) [1]: inactive: 0.0979
- cell viability (log2) [2]: inactive: 0.00227
- cell viability (log2) [5]: inactive: 0.159
- cell viability (log2) [6]: inactive: 0.0828
- cell viability (log2) [3]: inactive: 0.0402
- cell viability (log2) [4]: inactive: 0.0512
- cell viability (log2) [7]: inactive: 0.113
- cell viability (log2) [8]: inactive: 0.0795
- cell viability (log2) (25 µM, library screen: screen2, EWS-FLI1 expression: high (no doxycycline)): inactive: 0.0414
- cell viability (log2) (25 µM, library screen: screen2, EWS-FLI1 expression: low (doxycycline-induced shRNA knockdown)): inactive: 0.0351

SMILES: COc1cccc(O)c1O
- cell viability (log2) [1]: inactive: 0.0869
- cell viability (log2) [2]: inactive: -0.0542
- cell viability (log2) [3]: inactive: 0.0973
- cell viability (log2) [4]: inactive: 0.197

SMILES: CC(=O)O[C@H]1C[C@@H](OC(C)=O)C(C)(C)C2C[C@@H](OC(C)=O)[C@@]3(C)C4=CC(=O)O[C@@H](c5ccoc5)[C@]4(C)CCC3[C@]21C (stereo partly drawn)
- cell viability (log2) [1]: inactive: 0.0506
- cell viability (log2) [2]: inactive: 0.0595
- cell viability (log2) [3]: active: -0.853
- cell viability (log2) [4]: active: -0.345

SMILES: Cn1nnc2c(C(N)=O)ncn2c1=O
- cell viability (log2) [9]: inactive: 0.0436
- cell viability (log2) [10]: inactive: 0.0168
- cell viability (log2) [11]: inactive: 0.0839
- cell viability (log2) [12]: inactive: 0.007
- cell viability (log2) [13]: inactive: 0.0171
- cell viability (log2) [14]: inactive: 0.0628
- cell viability (log2) [15]: inactive: 0.0167
- cell viability (log2) [16]: inactive: 0.034
- cell viability (log2) [17]: inactive: 0.0409
- cell viability (log2) [18]: inactive: 0.0929
- cell viability (log2) [19]: inactive: -0.0728
- cell viability (log2) [20]: inactive: 0.0977

SMILES: O=P(O)(O)C(O)c1ccc2ccccc2c1 (stereo not drawn)
- cell viability (log2) (0.025 µM, library screen: screen1, EWS-FLI1 expression: high (no doxycycline)): inactive: 0.0997
- cell viability (log2) (0.025 µM, library screen: screen1, EWS-FLI1 expression: low (doxycycline-induced shRNA knockdown)): inactive: 0.0649
- cell viability (log2) [1]: inactive: 0.143
- cell viability (log2) [2]: inactive: -0.0248
- cell viability (log2) [3]: inactive: 0.0554
- cell viability (log2) [4]: inactive: 0.0311
- cell viability (log2) (25 µM, library screen: screen1, EWS-FLI1 expression: high (no doxycycline)): inactive: 0.0292
- cell viability (log2) (25 µM, library screen: screen1, EWS-FLI1 expression: low (doxycycline-induced shRNA knockdown)): inactive: 0.0551

SMILES: COc1ccc(CCC(=O)c2c(O)cc(O[C@@H]3O[C@H](CO)[C@@H](O)[C@H](O)[C@H]3O[C@@H]3O[C@@H](C)[C@H](O)[C@@H](O)[C@H]3O)cc2O)cc1O
- cell viability (log2) [1]: inactive: 0.0959
- cell viability (log2) [2]: inactive: 0.0186
- cell viability (log2) [3]: inactive: 0.12
- cell viability (log2) [4]: inactive: -0.113

SMILES: C[C@]12CC[C@H](O)CC1=CC[C@@H]1[C@@H]2CC[C@]2(C)C(c3cccnc3)=CC[C@@H]12
- cell viability (log2) [9]: inactive: 0.0559
- cell viability (log2) [10]: inactive: 0.0561
- cell viability (log2) [11]: inactive: 0.0533
- cell viability (log2) [12]: inactive: 0.034
- cell viability (log2) [13]: inactive: 0.0873
- cell viability (log2) [14]: inactive: 0.0578
- cell viability (log2) [15]: inactive: 0.0754
- cell viability (log2) [16]: inactive: 0.0545
- cell viability (log2) [17]: inactive: 0.0366
- cell viability (log2) [18]: inactive: 0.0563
- cell viability (log2) [19]: inactive: -0.00605
- cell viability (log2) [20]: inactive: 0.0808

SMILES: CC(C)(C)CC(C)(C)c1ccc(OCCOCC[N+](C)(C)Cc2ccccc2)cc1
- cell viability (log2) [1]: inactive: 0.176
- cell viability (log2) [2]: inactive: 0.133
- cell viability (log2) [3]: inactive: 0.0883
- cell viability (log2) [4]: inactive: 0.0827

SMILES: C=CC[N+]1([C@H]2C[C@H]3[C@@H]4CC[C@H]5C[C@H](O)[C@@H](N6CCOCC6)C[C@]5(C)[C@H]4CC[C@]3(C)[C@H]2OC(C)=O)CCCC1
- cell viability (log2) [9]: inactive: 0.0408
- cell viability (log2) [10]: inactive: -0.0481
- cell viability (log2) [11]: inactive: 0.0335
- cell viability (log2) [12]: inactive: -0.00312
- cell viability (log2) [13]: inactive: -0.0495
- cell viability (log2) [14]: inactive: 0.0576
- cell viability (log2) [15]: inactive: 0.0125
- cell viability (log2) [16]: inactive: 0.0267
- cell viability (log2) [17]: inactive: 0.00475
- cell viability (log2) [18]: inactive: 0.0403
- cell viability (log2) [19]: inactive: -0.0274
- cell viability (log2) [20]: inactive: 0.0195

SMILES: CC(C)(C)NC(=O)[C@H]1CC[C@H]2[C@@H]3CC[C@H]4NC(=O)C=C[C@]4(C)[C@H]3CC[C@]12C
- cell viability (log2) [9]: inactive: -0.0752
- cell viability (log2) [10]: inactive: 0.0317
- cell viability (log2) [11]: inactive: 0.0461
- cell viability (log2) [12]: inactive: 0.107
- cell viability (log2) [13]: inactive: 0.0597
- cell viability (log2) [14]: inactive: 0.034
- cell viability (log2) [15]: inactive: 0.146
- cell viability (log2) [16]: inactive: 0.0984
- cell viability (log2) [17]: inactive: 0.112
- cell viability (log2) [18]: inactive: 0.0282
- cell viability (log2) [19]: inactive: 0.142
- cell viability (log2) [20]: inactive: 0.00216

SMILES: C=CC1=C(C)/C(=C/c2[nH]c(Cc3[nH]c(/C=C4\NC(=O)C(C)=C4C=C)c(C)c3CCC(=O)O)c(CCC(=O)O)c2C)NC1=O
- cell viability (log2) [1]: inactive: 0.0132
- cell viability (log2) [2]: inactive: 0.0277
- cell viability (log2) [3]: inactive: 0.0983
- cell viability (log2) [4]: inactive: 0.128

SMILES: COc1cc(OC)cc(C(CNc2ncnc3c2ncn3C2O[C@H](CO)[C@@H](O)[C@H]2O)c2ccccc2C)c1 (stereo partly drawn)
- cell viability (log2) [5]: inactive: 0.151
- cell viability (log2) [6]: inactive: 0.0311
- cell viability (log2) [7]: inactive: 0.147
- cell viability (log2) [8]: inactive: 0.121

SMILES: Nc1nc(N)c2nc(-c3ccccc3)c(N)nc2n1
- cell viability (log2) [1]: inactive: 0.0758
- cell viability (log2) [2]: inactive: 0.0877
- cell viability (log2) [5]: inactive: 0.138
- cell viability (log2) [6]: inactive: 0.0552
- cell viability (log2) [3]: inactive: 0.17
- cell viability (log2) [4]: inactive: 0.199
- cell viability (log2) [7]: inactive: 0.152
- cell viability (log2) [8]: inactive: 0.0662

SMILES: C=C1CC[C@H](O)C/C1=C/C=C1\CCC[C@]2(C)[C@@H]([C@H](C)/C=C/[C@H](C)C(C)C)CC[C@@H]12
- cell viability (log2) [1]: inactive: 0.121
- cell viability (log2) [2]: inactive: 0.0629
- cell viability (log2) [3]: inactive: 0.203
- cell viability (log2) [4]: inactive: -0.0371
